Assay results reported in PMC5700166.
This is a selection; strong and weak results do not stand in their true shares. The list includes weakly bound sequences.

Assays:
Test in all cases: protein-binding microarray (PBM)
Settings in all cases: PBM: ~300 nM protein, 6 mM HEPES pH 7.8, 80 mM KCl, 0.5 mM EDTA, 0.5 mM EGTA, 6% glycerol, 35 ng/ul poly-dIdC, 1% milk, 1 h, room temperature; Ap Aiptasia and Nv Nematostella (sea anemones) / Co Capsaspora / Aq Amphimedon (sponge) / Dm Drosophila / Hu human; RHD is the Rel homology domain; high values mean tight binding; most listed sequences are background and not binding sites; double strand, one strand shown
[1] = target: T1, GST-Nv-NF-kB (Cys allele) (UniProt E5G601)
T1 sequence: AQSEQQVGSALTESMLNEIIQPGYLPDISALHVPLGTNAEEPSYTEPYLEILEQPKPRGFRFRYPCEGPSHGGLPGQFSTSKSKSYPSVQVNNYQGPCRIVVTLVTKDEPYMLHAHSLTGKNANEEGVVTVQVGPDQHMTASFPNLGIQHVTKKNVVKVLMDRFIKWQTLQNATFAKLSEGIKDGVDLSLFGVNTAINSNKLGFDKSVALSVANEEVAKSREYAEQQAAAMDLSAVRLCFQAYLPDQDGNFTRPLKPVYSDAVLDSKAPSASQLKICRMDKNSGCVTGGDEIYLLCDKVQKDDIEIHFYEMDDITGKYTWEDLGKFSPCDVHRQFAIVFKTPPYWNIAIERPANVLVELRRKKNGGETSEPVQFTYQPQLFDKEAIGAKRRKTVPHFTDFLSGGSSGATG

GST-Dm-Relish = target: T2, GST-Dm-Relish (UniProt Q94527)
T2 sequence: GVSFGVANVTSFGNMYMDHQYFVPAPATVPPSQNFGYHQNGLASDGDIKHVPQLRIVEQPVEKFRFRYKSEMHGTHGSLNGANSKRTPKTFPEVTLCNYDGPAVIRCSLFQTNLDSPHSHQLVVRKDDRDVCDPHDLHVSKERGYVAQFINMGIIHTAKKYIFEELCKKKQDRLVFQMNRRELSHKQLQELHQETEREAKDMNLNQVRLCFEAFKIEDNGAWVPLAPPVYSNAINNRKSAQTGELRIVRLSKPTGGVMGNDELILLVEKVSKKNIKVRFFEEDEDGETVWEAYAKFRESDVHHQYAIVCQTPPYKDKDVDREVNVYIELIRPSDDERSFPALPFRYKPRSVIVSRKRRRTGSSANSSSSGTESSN

GST-Aq-NF-kB = target: T3, GST-Aq-NF-kB (UniProt A9Y5G7)
T3 sequence: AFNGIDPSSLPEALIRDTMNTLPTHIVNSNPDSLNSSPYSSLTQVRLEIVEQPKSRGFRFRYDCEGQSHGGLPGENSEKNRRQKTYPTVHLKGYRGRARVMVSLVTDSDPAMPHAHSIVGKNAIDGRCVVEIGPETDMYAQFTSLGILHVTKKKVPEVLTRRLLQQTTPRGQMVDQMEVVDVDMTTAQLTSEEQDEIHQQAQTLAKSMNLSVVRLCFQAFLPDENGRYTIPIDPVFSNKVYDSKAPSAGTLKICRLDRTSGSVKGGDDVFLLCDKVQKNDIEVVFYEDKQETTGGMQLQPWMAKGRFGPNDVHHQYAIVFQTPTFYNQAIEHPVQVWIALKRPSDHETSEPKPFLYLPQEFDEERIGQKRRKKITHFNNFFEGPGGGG

GST-Co-NF-kB = target: T4, GST-Co-NF-kB (UniProt F1ARL5)
T4 sequence: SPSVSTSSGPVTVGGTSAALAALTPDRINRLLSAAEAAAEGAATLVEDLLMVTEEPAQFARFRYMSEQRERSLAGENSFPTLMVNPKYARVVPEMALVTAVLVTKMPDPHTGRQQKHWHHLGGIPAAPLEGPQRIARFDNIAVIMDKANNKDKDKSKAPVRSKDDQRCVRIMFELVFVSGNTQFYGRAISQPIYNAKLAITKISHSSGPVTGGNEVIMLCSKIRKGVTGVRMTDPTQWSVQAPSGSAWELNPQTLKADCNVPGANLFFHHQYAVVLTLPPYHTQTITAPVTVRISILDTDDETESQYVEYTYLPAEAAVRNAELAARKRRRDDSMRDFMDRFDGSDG

Sequence “CCGATTAACATCAGGGAACCACCTGATGTTAATCGGGTCTTGATTCGCTTGACGCTGCTG” has a binding signal [1] of 5.68 z-score, a binding signal (GST-Dm-Relish) of 9.5 z-score and a binding signal (GST-Aq-NF-kB) of 6.96 z-score.
“CCGATTAACATCAATCTTTCCCCTGATGTTAATCGGGTCTTGATTCGCTTGACGCTGCTG” showed a binding signal (GST-Co-NF-kB) of 8.32 z-score and a binding signal (GST-Aq-NF-kB) of 5.91 z-score.
With “CCGATTAACATCACCCCTCCCCATGATGTTAATCGGGTCTTGATTCGCTTGACGCTGCTG” the binding signal (GST-Co-NF-kB) was 3.58 z-score and the binding signal (GST-Aq-NF-kB) was 2.92 z-score.
With “CCGATTAACATCACGTTTCCCCCTGATGTTAATCGGGTCTTGATTCGCTTGACGCTGCTG” the binding signal (GST-Co-NF-kB) was 9.58 z-score and the binding signal (GST-Aq-NF-kB) was 5.17 z-score.
Sequence “CCGATTAACATCAAGAGATCCCCTGATGTTAATCGGGTCTTGATTCGCTTGACGCTGCTG” has a binding signal (GST-Co-NF-kB) of 2.3 z-score and a binding signal (GST-Aq-NF-kB) of 4.97 z-score.
“CCGATTAACATCAATTTTCCCCATGATGTTAATCGGGTCTTGATTCGCTTGACGCTGCTG” showed a binding signal (GST-Co-NF-kB) of 9.2 z-score and a binding signal (GST-Aq-NF-kB) of 5.53 z-score.
“CCGATTAACATCAAAATTCCACCTGATGTTAATCGGGTCTTGATTCGCTTGACGCTGCTG” showed a binding signal (GST-Co-NF-kB) of 0.948 z-score and a binding signal (GST-Aq-NF-kB) of 2.25 z-score.
Work on “CCGATTAACATCAGGAAGATCCCTGATGTTAATCGGGTCTTGATTCGCTTGACGCTGCTG” yielded a binding signal (GST-Co-NF-kB) of 0.37 z-score and a binding signal (GST-Aq-NF-kB) of 5.44 z-score.
In the case of “CCGATTAACATCAGGGAATGCCATGATGTTAATCGGGTCTTGATTCGCTTGACGCTGCTG”, the binding signal (GST-Co-NF-kB) was 1.43 z-score and the binding signal (GST-Aq-NF-kB) was 3.45 z-score.
For “CCGATTAACATCAGACAATTCCCTGATGTTAATCGGGTCTTGATTCGCTTGACGCTGCTG”, the binding signal (GST-Co-NF-kB) was 2.28 z-score and the binding signal (GST-Aq-NF-kB) was 4.77 z-score.
Work on “CCGATTAACATCACATGTTTCCCTGATGTTAATCGGGTCTTGATTCGCTTGACGCTGCTG” yielded a binding signal (GST-Co-NF-kB) of 4.5 z-score and a binding signal (GST-Aq-NF-kB) of 4.01 z-score.
Work on “CCGATTAACATCAGGAAAACCCATGATGTTAATCGGGTCTTGATTCGCTTGACGCTGCTG” yielded a binding signal (GST-Co-NF-kB) of 0.414 z-score and a binding signal (GST-Aq-NF-kB) of 4.02 z-score.
With “CCGATTAACATCACCCGGCGCAGTGATGTTAATCGGGTCTTGATTCGCTTGACGCTGCTG” the binding signal [1] was -0.0701 z-score, the binding signal (GST-Dm-Relish) was 0.799 z-score and the binding signal (GST-Aq-NF-kB) was 0.573 z-score.
“CCGATTAACATCAGGGGAACGCATGATGTTAATCGGGTCTTGATTCGCTTGACGCTGCTG” showed a binding signal [1] of 5.4 z-score, a binding signal (GST-Dm-Relish) of 2.68 z-score and a binding signal (GST-Aq-NF-kB) of 3.75 z-score.
For “CCGATTAACATCAGGGACTTCCATGATGTTAATCGGGTCTTGATTCGCTTGACGCTGCTG”, the binding signal (GST-Co-NF-kB) was -0.236 z-score and the binding signal (GST-Aq-NF-kB) was 5.53 z-score.
For “CCGATTAACATCAGGACTTTACCTGATGTTAATCGGGTCTTGATTCGCTTGACGCTGCTG”, the binding signal (GST-Co-NF-kB) was -0.611 z-score and the binding signal (GST-Aq-NF-kB) was 4.69 z-score.
In the case of “CCGATTAACATCAGGAAAAGCCCTGATGTTAATCGGGTCTTGATTCGCTTGACGCTGCTG”, the binding signal (GST-Co-NF-kB) was -0.498 z-score and the binding signal (GST-Aq-NF-kB) was 4.95 z-score.
“CCGATTAACATCAGGGGGAATGATGATGTTAATCGGGTCTTGATTCGCTTGACGCTGCTG” gave a binding signal (GST-Co-NF-kB) of 6.6 z-score and a binding signal (GST-Aq-NF-kB) of 4.98 z-score.
Work on “CCGATTAACATCACACCCCCCCCTGATGTTAATCGGGTCTTGATTCGCTTGACGCTGCTG” yielded a binding signal (GST-Co-NF-kB) of 5.16 z-score and a binding signal (GST-Aq-NF-kB) of 4.16 z-score.
Work on “CCGATTAACATCAAATTTCCCAGTGATGTTAATCGGGTCTTGATTCGCTTGACGCTGCTG” yielded a binding signal (GST-Co-NF-kB) of 4.39 z-score and a binding signal (GST-Aq-NF-kB) of 3.48 z-score.
With “CCGATTAACATCAGGGGGCGGGATGATGTTAATCGGGTCTTGATTCGCTTGACGCTGCTG” the binding signal (GST-Co-NF-kB) was 2.28 z-score and the binding signal (GST-Aq-NF-kB) was 4.03 z-score.
“CCGATTAACATCAAGGGGATCCCTGATGTTAATCGGGTCTTGATTCGCTTGACGCTGCTG” was tested, and the binding signal (GST-Co-NF-kB) was 3.82 z-score, the binding signal (GST-Dm-Relish) was 10.3 z-score and the binding signal (GST-Aq-NF-kB) was 6.69 z-score.
For “CCGATTAACATCAAACGCCCCCCTGATGTTAATCGGGTCTTGATTCGCTTGACGCTGCTG”, the binding signal (GST-Co-NF-kB) was 3.84 z-score and the binding signal (GST-Aq-NF-kB) was 5.57 z-score.
For “CCGATTAACATCAATTCCCCCCGTGATGTTAATCGGGTCTTGATTCGCTTGACGCTGCTG”, the binding signal (GST-Co-NF-kB) was 8.8 z-score and the binding signal (GST-Aq-NF-kB) was 5.76 z-score.
In the case of “CCGATTAACATCACATTTTTCCCTGATGTTAATCGGGTCTTGATTCGCTTGACGCTGCTG”, the binding signal (GST-Co-NF-kB) was 5.64 z-score, the binding signal (GST-Dm-Relish) was 2.56 z-score and the binding signal (GST-Aq-NF-kB) was 4.26 z-score.
“CCGATTAACATCAACTCCCCCCATGATGTTAATCGGGTCTTGATTCGCTTGACGCTGCTG” gave a binding signal (GST-Co-NF-kB) of 6.49 z-score and a binding signal (GST-Aq-NF-kB) of 4.72 z-score.
In the case of “CCGATTAACATCAATAAATTCCCTGATGTTAATCGGGTCTTGATTCGCTTGACGCTGCTG”, the binding signal (GST-Co-NF-kB) was 4.25 z-score and the binding signal (GST-Aq-NF-kB) was 5.34 z-score.
With “CCGATTAACATCAAGGGGGAGGGTGATGTTAATCGGGTCTTGATTCGCTTGACGCTGCTG” the binding signal (GST-Co-NF-kB) was 4.4 z-score and the binding signal (GST-Aq-NF-kB) was 4.42 z-score.
“CCGATTAACATCAGGGTTTCACCTGATGTTAATCGGGTCTTGATTCGCTTGACGCTGCTG” showed a binding signal (GST-Co-NF-kB) of -0.722 z-score, a binding signal (GST-Dm-Relish) of 5.71 z-score and a binding signal (GST-Aq-NF-kB) of 3.71 z-score.
In the case of “CCGATTAACATCAGGAATGTCCCTGATGTTAATCGGGTCTTGATTCGCTTGACGCTGCTG”, the binding signal (GST-Co-NF-kB) was 0.775 z-score and the binding signal (GST-Aq-NF-kB) was 6.41 z-score.
“CCGATTAACATCAGGACTCCCCATGATGTTAATCGGGTCTTGATTCGCTTGACGCTGCTG” gave a binding signal (GST-Co-NF-kB) of 3.44 z-score and a binding signal (GST-Aq-NF-kB) of 4.12 z-score.
“CCGATTAACATCAAGAATTTCCCTGATGTTAATCGGGTCTTGATTCGCTTGACGCTGCTG” showed a binding signal (GST-Co-NF-kB) of 5.07 z-score and a binding signal (GST-Aq-NF-kB) of 7.53 z-score.
In the case of “CCGATTAACATCAGGGGTATTACTGATGTTAATCGGGTCTTGATTCGCTTGACGCTGCTG”, the binding signal (GST-Co-NF-kB) was 3.37 z-score and the binding signal (GST-Aq-NF-kB) was 4.5 z-score.
With “CCGATTAACATCAATTTCCCCCCTGATGTTAATCGGGTCTTGATTCGCTTGACGCTGCTG” the binding signal (GST-Co-NF-kB) was 11.5 z-score and the binding signal (GST-Aq-NF-kB) was 6.64 z-score.
“CCGATTAACATCAGGACCGTCCCTGATGTTAATCGGGTCTTGATTCGCTTGACGCTGCTG” was tested, and the binding signal (GST-Co-NF-kB) was -0.0707 z-score, the binding signal (GST-Dm-Relish) was 0.526 z-score and the binding signal (GST-Aq-NF-kB) was 6.42 z-score.
“CCGATTAACATCACGCAATTCCCTGATGTTAATCGGGTCTTGATTCGCTTGACGCTGCTG” was tested, and the binding signal (GST-Co-NF-kB) was 2.33 z-score, the binding signal (GST-Dm-Relish) was 1.52 z-score and the binding signal (GST-Aq-NF-kB) was 3.43 z-score.
“CCGATTAACATCACCCCTCCCCCTGATGTTAATCGGGTCTTGATTCGCTTGACGCTGCTG” was tested, and the binding signal (GST-Co-NF-kB) was 4.73 z-score and the binding signal (GST-Aq-NF-kB) was 4.12 z-score.
Sequence “CCGATTAACATCAAAATTTCACCTGATGTTAATCGGGTCTTGATTCGCTTGACGCTGCTG” has a binding signal (GST-Co-NF-kB) of 0.358 z-score and a binding signal (GST-Aq-NF-kB) of 1.7 z-score.
